Our source for the TGI and GI50 values is PubChem BioAssay (NCI).

“And” between values parts separate entries of the source, which are not always exact repeats. Equal entries are not always repeated.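 A five-concentration, 48-hour dose response in 96-well plates underlies each endpoint, interpolated linearly between surrounding concentrations. Here, GI50 denotes the concentration required for 50% inhibition of growth. TGI is the concentration that stops growth completely.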 Square brackets hold non-standard residues; d marks the D form. Peptide text beside a SMILES is read from it. * marks the point of attachment. ξ: configuration not given here. ξF = NC(Cc1ccccc1)C(=O)O; Cbz = O=C(OCc1ccccc1)*; Aib = CC(C)(N)C(=O)O

This assay has as its system NCI-H322M lung. In words: NCI tumour cell line growth inhibition, 48 h.
On to `CCN(CC)CC[n+]1ccc2c(C)c3[nH]c4ccc(O)cc4c3c(C)c2c1`, for which the TGI is 27.2 µM and 21.4 µM.
Still for that read-out and setting: the result for `Cc1[nH]c2ccccc2c1CC/C(=N\Nc1ccccc1)c1ccccc1` reads > 100 µM; that for `O/N=C(/CC(O)(C(F)(F)F)C(F)(F)F)c1ccccc1`, > 10 µM; that for `COc1ccc2c3c1OC1C(OC)(OC)C=C[C@@]4(Br)[C@@H](C2)N(CC2CC2)CC[C@]314` (some centres undefined), > 100 µM.
Regarding `C#CC(=O)Nc1cccc2c1cc(C)n2-c1nc2c(c(NCc3ccccc3)n1)CCCC2`, the GI50 was 1.79 µM and the TGI was found to be 3.37 µM.
`CCc1n[nH]c(=O)n1/N=C(\C)c1ccc([N+](=O)[O-])cc1`: the TGI was > 100 µM.
Same read-out and setting: next, `COC1(C)C(=O)N2C1N(C(=O)OC(C)(C)C)CC2(C)C` (centres undefined): > 100 µM.
On the same count and under the same terms, the result for `Cc1c(/C=N/NC(=S)Nc2ccc(Cl)cc2)c(=O)n(-c2ccccc2)n1C` reads > 100 µM.
Take `C=CC(=O)N1C[C@@H]2CCOc3c(Cl)c(-c4c(O)cccc4F)c(F)c4ncnc(c34)N2C[C@H]1C`: the GI50 is 14.2 µM and the TGI came out at 31.2 µM.
Consider `COc1cc(-c2nc3sc(C)cn3c2/C=C2\C(=O)Nc3ccccc32)c(Br)c(OC)c1OC`, for which the GI50 was 37.2 µM and the TGI was > 100 µM.
The molecule `Cc1cc2c(c(O)c1-c1c(C)cc(O)c3c1C(=O)C=CC3=O)C(=O)C=CC2=O` registered a TGI of 31 µM.
The same measure, in the same setting: next, `CCCCCCCCCCCCCCCCCCNc1ccn(C2OC(CO)C(OP(=O)(O)OCC(O)COP(=O)(O)OCC3OC(n4cc(F)c(NCCCCCCCCCCCCCCCCCC)nc4=O)CC3O)C2O)c(=O)n1` (centres undefined): > 50 µM; `C/C(=N\OCC(O)CNCCSCc1ccccc1)c1ccccc1Cl` (centres undefined): 36.9 µM.
The same measure, in the same setting: next, `CCOC(=O)C1=C(C)NC2=C(C(=O)N(c3ccccc3)C2c2ccccc2)C1c1ccccc1` (centres undefined): 31.1 µM; `O=C1C2CCCCC2C(=O)N1n1c(-c2ccccc2)n[nH]c1=O` (centres undefined): > 100 µM.
Turning to `CC(C)[C@@](O)(c1ccc2cc(OC(F)F)c(OC(F)F)cc2c1)c1cn[nH]n1`, the GI50 is 21.8 µM and the TGI is 60 µM.
As for `COc1cc(N2C(=O)[C@H](c3ccccc3)C2c2ccc(SC)cc2)cc(OC)c1OC` (some centres undefined), the GI50 was 0.053 µM and the TGI was > 100 µM.
Take `COC(=O)c1cc2oc(/C=C3/SC(=S)N(N)C3=O)cc2n1Cc1ccccc1`: the GI50 is 24.6 µM and the TGI is > 84.2 µM.
Take `Cc1c2c(nc3ccccc13)C(=O)c1cccnc1C2=O`: the TGI is > 100 µM.
The same measure, in the same setting: next, `CCOC(=O)CNC(=O)C(Cc1ccccc1)NC(=O)C(C)(C)NC(=O)OCc1ccccc1` (centres undefined) (Cbz-[Aib]-[ξF]-Gly-OEt): > 100 µM.
Take `CCCCN1C(=O)c2c(Br)sc(Br)c2C1=O`: the TGI is > 100 µM.
The same measure, in the same setting: the result for `O=C(O)C1(Cc2ccccc2)Cc2cc3c(cc2C1)CCC3` reads > 100 µM.
The same measure, in the same setting: the result for `O=c1cc(NNCc2ccccc2)[nH]c(=O)[nH]1` reads > 100 µM; that for `CN(CC(=O)O)Cc1c(O)c(Cl)cc(Cl)c1Cl`, > 100 µM.
With `COc1ccc(C(=NN=C(N)N)c2ccc(OC)cc2)cc1`, the GI50 was 2.9 µM and the TGI stood at 13 µM.
With `COc1ccc(NC(C)=O)cc1N1C(=O)/C(=C\c2ccccc2)SC1c1cc(OC)c(OC)c(OC)c1` (centres undefined), the TGI is > 100 µM.
The same measure, in the same setting: next, `O=c1[nH]c(=O)n(C2CC(O)C(CO)O2)cc1C(F)(C(F)(F)F)C(F)(F)F` (centres undefined): > 100 µM; `CC(C)(C)c1cc(CCCCCCCC2(CCCCCCCc3cc(C(C)(C)C)cc(C(C)(C)C)c3)OC(COCCOCCCCCC#N)C(COCCOCCCCCC#N)O2)cc(C(C)(C)C)c1` (centres undefined): > 100 µM.
With `COc1ccc(/C=C2\COc3ccc(O)c(O)c3C2=O)c(OC)c1OC`, the GI50 was 3.88 µM and the TGI worked out at 47.6 µM.
As to `CN(Cc1cn(O)c2nc(=N)nc(N)c-2n1)c1ccc(C(=O)NC23CC4CC(CC(C4)C2)C3)cc1`, the TGI was > 100 µM.
The same measure, in the same setting: the result for `C=C(C)[C@@H]1CCC2=C[C@H](C/C(C)=C\C3=CC(C)=C(O3)[C@H]1O)OC2=O` reads > 100 µM.
